# In all, about 33,000 sequences were measured (“E-score (-0.5 to 0.5)”: median about -0.021, highest 2% from about 0.32 on). The list shows a part of the results.
# Molecular target: T1, Zap1 (UniProt P47043)
# T1 sequence: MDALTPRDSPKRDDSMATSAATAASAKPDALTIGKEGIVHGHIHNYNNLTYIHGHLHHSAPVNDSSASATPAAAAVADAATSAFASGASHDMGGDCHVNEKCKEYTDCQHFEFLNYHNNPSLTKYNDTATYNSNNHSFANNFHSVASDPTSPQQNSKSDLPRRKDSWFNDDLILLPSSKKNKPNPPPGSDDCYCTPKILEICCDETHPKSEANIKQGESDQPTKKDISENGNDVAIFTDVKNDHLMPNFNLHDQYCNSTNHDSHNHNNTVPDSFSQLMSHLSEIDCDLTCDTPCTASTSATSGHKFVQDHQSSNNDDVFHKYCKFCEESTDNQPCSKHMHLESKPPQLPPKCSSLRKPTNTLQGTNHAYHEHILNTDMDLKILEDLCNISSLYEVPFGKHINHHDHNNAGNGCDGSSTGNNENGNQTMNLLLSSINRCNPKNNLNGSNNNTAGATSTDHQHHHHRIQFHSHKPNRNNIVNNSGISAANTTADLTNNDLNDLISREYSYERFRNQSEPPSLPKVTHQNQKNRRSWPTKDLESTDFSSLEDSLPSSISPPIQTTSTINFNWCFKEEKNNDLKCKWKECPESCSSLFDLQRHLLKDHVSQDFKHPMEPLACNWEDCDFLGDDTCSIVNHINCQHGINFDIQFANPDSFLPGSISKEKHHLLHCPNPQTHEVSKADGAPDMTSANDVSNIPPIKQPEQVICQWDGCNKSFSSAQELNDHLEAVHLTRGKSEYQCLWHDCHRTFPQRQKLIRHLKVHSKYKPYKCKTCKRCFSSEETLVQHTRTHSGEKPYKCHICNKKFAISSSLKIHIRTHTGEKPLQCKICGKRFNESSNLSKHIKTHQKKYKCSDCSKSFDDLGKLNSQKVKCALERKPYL
# Experiment: PBM E-score (8-mer binding enrichment) (E-score (-0.5 to 0.5)); higher = stronger / more preferred TF binding; most listed sequences are background and not binding sites
# Conditions: protein concentration: 200 nM; construct: GST-full length
# Procedure, shortened: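 Yeast transcription factors, full-length or as DNA-binding domains, were expressed with a GST tag using PURExpress in vitro transcription/translation. At about 100-200 nM they were applied to universal all-10-mer Agilent arrays, double-stranded by primer extension on fresh or once-stripped slides. Fluorescent anti-GST detected bound protein, and masliner normalised the scans. E-scores for ungapped eight-base words, pooled with reverse complements, came from the Universal PBM Analysis Suite.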
row,Sequence,PBM E-score
1,CTGCCGCC,-0.234
2,AAAGTTAA,0.202
3,AACGGCAG,-0.0615
4,AAGTAAGT,-0.12
5,ACTTATAC,0.0964
6,ATTGTGTC,0.0821
7,CAATTCTC,-0.085
8,GATCTCGC,-0.0165
9,ATTTATTG,-0.0622
10,ATACCGCG,0.107
11,ATAGAAAG,-0.058
12,GTTGGACA,-0.0571
13,GAGCGCTC,-0.187
14,TACTATGA,0.0715
15,AGTCGGAC,-0.207
16,CCCCGCCC,0.258
17,CCGATTTC,0.00395
18,AACTTCTC,-0.00977
19,ATACCAAA,0.153
20,ATGCACTC,-0.292
21,ACAGATAG,-0.085
22,GCTGGGTA,-0.00384
23,ACTTATGG,0.0134
24,CCATTGAG,0.0869
25,AACAGTAT,0.0128

row,Sequence,PBM E-score
1,GGAGTTTA,-0.0721
2,AACGTTCC,-0.14
3,CTTGAGAA,0.0299
4,ATTTCGTA,-0.0658
5,GCTAGTGA,0.125
6,CCGGTTAG,0.159
7,ACCCTCAT,0.267
8,AGTACCAC,0.208
9,CGGCGCAG,-0.253
10,TAACAGGA,0.0198
11,AACGAGTG,-0.116
12,ATACTCCG,0.13
13,CACGCATC,-0.0974
14,GCCGATAC,-0.262
15,CGAAATGC,0.039
16,ACCCCCCT,-0.283
17,CAACAATA,0.159
18,AGGATTCA,-0.164
19,TACTGTCA,0.0135
20,CTCCAAGA,-0.135
21,CTGGAGTC,-0.293
22,CTACCGAA,-0.0174
23,CGCCTAAC,0.0159
24,GGCTAGTA,-0.138
25,AGTTAGGA,0.0469

row,Sequence,PBM E-score
1,ACTTCCCG,-0.209
2,ACCCTCGT,0.358
3,CATGGTAA,0.176
4,AATTGCGC,0.0813
5,ACGTATAC,0.00898
6,CTTTCCAC,-0.158
7,AGGAATGA,-0.0672
8,GTGCGACA,-0.0731
9,AGTTAGTC,-0.0109
10,ACGCAAGT,-0.0294
11,CGTGAGAA,0.103
12,CCACTCGA,0.0711
13,AACATTGA,-0.0517
14,CGTATCGA,-0.133
15,CGTGGGCA,-0.398
16,CATGGCAC,-0.0804
17,CGCGGGAC,-0.109
18,CACTTCCG,-0.0229
19,CCGGTGAC,0.177
20,ACTAGCAC,-0.0163
21,AGTTGTAA,0.0607
22,ATTTTATA,0.218
23,CTCCGATA,-0.14
24,GCTTCTAC,-0.154
25,AGCAATGG,-0.133

row,Sequence,PBM E-score
1,AGGACAGA,-0.116
2,GACCAGTC,-0.118
3,ATGGTGAG,-0.0848
4,CTTGAATA,0.0966
5,CCTCCCAA,-0.053
6,GAACTAGA,-0.059
7,ACGCTGCT,-0.138
8,CAAATTGC,-0.0528
9,GGAGGAGA,-0.31
10,CGTCTCTA,-0.19
11,GCAAATAA,0.121
12,ATATGCTA,-0.0941
13,CTGGCGAC,-0.15
14,AACCGTCA,0.183
15,AACCTTCG,0.305
16,GTACTCAC,0.23
17,TTGTCAAA,0.147
18,TAGGTAGA,0.117
19,AAGTAAAG,-0.218
20,ATTCCCAG,-0.0801
21,CCTTCAAA,0.215
22,CAGGCTGC,-0.2
23,GTATTAAA,0.115
24,CCTAACAA,0.221
25,CATCGCTC,-0.173

row,Sequence,PBM E-score
1,TACTTTGA,0.121
2,TAACGGTA,0.257
3,GGGTCCGA,0.0103
4,CCAGGAGA,-0.0614
5,CATGGAGA,-0.0466
6,GGATCGCA,-0.0873
7,CCCCTAAA,0.0485
8,CCTGATAA,0.0464
9,ACAGTGAT,-0.0505
10,CCGATAAC,0.229
11,ATTAGGAG,-0.04
12,CAGACATC,-0.0635
13,ATGGAAGC,-0.263
14,AATGCGGG,0.172
15,GGCGGTAA,0.125
16,GTTTTGAA,0.152
17,CCAAGTGA,0.124
18,ATCGCACC,-0.0201
19,AAGGTTCC,0.317
20,GGCGTACC,0.0458
21,TTCGCGAA,0.121
22,CATAGATA,-0.195
23,CGGAAAGC,-0.117
24,AAACTTAG,0.0118
25,ATCTGCCC,-0.337

row,Sequence,PBM E-score
1,TCGATACA,0.166
2,ATATCAAG,0.228
3,ATAAAGCA,-0.0384
4,CATACAGG,0.0416
5,CCCCTGAG,-0.0275
6,AGATGTAA,-0.0125
7,CTATCATC,0.00267
8,ACTGAGGG,-0.0161
9,CGGTCCAA,-0.0431
10,ATAGGAAG,-0.133
11,ATGCCAGG,-0.0827
12,AGGAACTA,-0.0309
13,CGTGATCA,0.0536
14,AATCGTTA,-0.106
15,ATATGCCC,-0.187
16,TCCACGGA,0.0527
17,GGCGCTGA,-0.24
18,ATCATGGC,-0.0482
19,ACATGTCG,-0.15
20,GGAGCATA,-0.0907
21,GTTTTCAA,0.285
22,CACCGTTC,0.0424
23,CCGCCACG,-0.0225
24,ACTTGGTC,0.173
25,ACTATGGG,0.052

row,Sequence,PBM E-score
1,AGTCGTCC,-0.262
2,ACTGCCAC,-0.0279
3,AAGCATAC,-0.0215
4,GTCAATGA,-0.0525
5,ACTGAGCT,-0.277
6,CTGAGATA,0.0134
7,AAAGACTT,-0.199
8,CAAGGCGC,-0.141
9,AAAATGCG,-0.0733
10,TAAAGATA,0.0715
11,GGGTGCAA,0.0943
12,GGGAAAGA,-0.243
13,CTTCACTA,0.00388
14,ACCGAGGA,-0.0406
15,ACGCTAGA,-0.119
16,TAGTGCCA,-0.18
17,ACAATCTG,-0.0469
18,CCATACGA,-0.0949
19,ATCAAGTA,-0.0433
20,TAGTAAAA,0.157
21,AGTATGTA,-0.0522
22,CGACTGTA,-0.09

# Reference: the supplement of paper PMC3334620
